# According to PubChem BioAssay AID624417 (National Center for Advancing Translational Sciences (NCATS), 2012):
# In all, about 410,000 compounds went through this assay and about 6,400 (1.6%) were called active. This list was built around the results that the source calls inconclusive (neither active nor inactive); the mix of calls is not that of the screen. The call rests on the fitted dose curve; in most records, active means well fitted inhibition curve with a large enough effect; inconclusive means small, poorly fitted or top-dose-only effect; inactive means no such curve, though single readings can be large or run the other way. No potency is given beside an inconclusive call; the fits are too rough.
# Biological target: Glucagon-like peptide 1 receptor (Homo sapiens) (UniProt P43220)
# UniProt P43220, sequence (P43220 whole entry, looked up): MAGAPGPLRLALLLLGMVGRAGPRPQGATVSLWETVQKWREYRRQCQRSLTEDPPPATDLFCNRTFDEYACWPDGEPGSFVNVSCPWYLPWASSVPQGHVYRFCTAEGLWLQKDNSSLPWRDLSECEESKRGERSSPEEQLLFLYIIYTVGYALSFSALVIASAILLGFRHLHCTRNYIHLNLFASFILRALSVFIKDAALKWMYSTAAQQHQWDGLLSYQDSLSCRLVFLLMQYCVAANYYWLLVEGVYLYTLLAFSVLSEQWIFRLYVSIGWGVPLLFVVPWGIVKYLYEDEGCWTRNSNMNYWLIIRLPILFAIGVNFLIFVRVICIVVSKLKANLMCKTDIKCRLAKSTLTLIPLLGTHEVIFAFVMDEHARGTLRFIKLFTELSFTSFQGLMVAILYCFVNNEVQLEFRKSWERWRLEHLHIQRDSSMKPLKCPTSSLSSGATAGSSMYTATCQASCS
# Assay: qHTS of GLP-1 Receptor Inverse Agonists (Inhibition Mode); further: nearly all actives have a fitted effect of over 55% in size
# Conditions: HEK293 GLP-1R CRE-luciferase, luminescence, 24 h, GLP-1R form is constitutively active; series mostly up to 38.3 µM
# How it was run: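 Inverse agonism was detected as reduced cAMP-driven luciferase luminescence after 24 h compound treatment. The cells were HEK293 clones expressing constitutively active human GLP-1R with the reporter. Reporter-only and GPR119 cell lines served as counterscreen controls.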
# Potency means the concentration at half of the fitted maximal effect; tags describe the fitted curve by direction and shape.
row,SMILES,Potency
1,C(=N\Nc1ccc2ccccc2n1)/c1ccc2c(c1)OCCO2,inactive
2,O=C(NN1C(=O)c2cc(Br)ccc2NC1c1ccccc1Cl)c1ccncc1 (stereo unspecified),inactive
3,CC1(C)CC(O)(CCNCc2ccc3c(c2)OCO3)CCO1 (stereo unspecified),"inconclusive [inhibitor, partial curve, poor fit]"
4,Cc1ccc(NNC(=O)c2c(F)cccc2Cl)cc1Cl,"inconclusive [inhibitor, full curve, poor fit]"
5,Cc1ccccc1NC(=O)c1ccc(NS(=O)(=O)c2cc(C(C)(C)C)cc(C)c2C)cc1,"inconclusive [inhibitor, partial curve, poor fit]"
6,CN(C)c1oc(-c2ccccc2Cl)nc1S(=O)(=O)c1ccccc1,"inconclusive [inhibitor, single point]"
7,Cc1ccccc1Nc1nc(Cl)nc(NC(C)(C)C)n1,"inconclusive [inhibitor, partial curve, poor fit]"
8,Cc1ccc(S(=O)(=O)NCc2ccc(C(=O)N3CCN(c4ccccn4)CC3)cc2)cc1,active: 12.6 µM
9,Cc1ccc(-c2nc(-c3ccncc3)no2)cc1Cl,inactive
10,O=C(COc1cccc(Oc2ccccc2)c1)Nc1ccc(SC(F)F)cc1,inactive
11,COC(=O)CSc1nc(N2CCCCC2)c2c(c1C#N)CCCC2,active: 10 µM
12,COc1cc(C(=O)N2CCNC(=O)C2CC(=O)Nc2ccc(C)c(C)c2)cc(OC)c1OC (stereo unspecified),inactive
13,CCn1c(CC(=O)Nc2ccccc2F)nnc1SCC(=O)NC1CCCCC1,inactive
14,CCCCOc1ccc(C2CCC(C(C)=O)C(C)C2)cc1 (stereo unspecified),"inconclusive [inhibitor, single point]"
15,CC1=C/C(=C(\c2ccc(O)c(C)c2)c2ccccc2S(=O)(=O)O)C=CC1=O,inactive
16,COc1ccc(NC(=O)Nc2sc(=S)n(C)c2C)cc1,"inconclusive [inhibitor, single point]"
17,N#Cc1cn(Cc2ccccc2)c2ccccc12,active: 11.2 µM
18,Cc1ccc2oc(=O)n(CC(=O)c3ccc(F)cc3)c2c1,"inconclusive [inhibitor, single point]"
19,COc1ccc(CC(=O)Nc2ncc([N+](=O)[O-])s2)cc1OC,inactive
20,CCOc1ccc(C(C)=O)cc1COC(=O)c1ccc2c(c1)NC(=O)CS2,inactive
21,COC(=O)[C@]1(Cc2ccccc2)N[C@H](c2ccc(-c3cc(C(C)=O)cs3)cc2)[C@@H]2C(=O)N(C)C(=O)[C@@H]21,inactive
22,Cc1ccc(C)c(C(=O)COC(=O)c2cc(S(=O)(=O)N3CCOCC3)ccc2F)c1,inactive

row,SMILES,Potency
1,CCN1C(=O)[C@@H]2[C@@H](c3ccc(-c4ccc(F)cc4)c(OC)c3)N3CCC[C@@]3(C(=O)OC)[C@@H]2C1=O,"inconclusive [inhibitor, full curve, poor fit]"
2,COc1ccc(-c2cnc(C(O)c3ccc(C(C)(C)C)cc3)[nH]2)cc1 (stereo unspecified),"inconclusive [inhibitor, single point]"
3,O=C1N(Cc2cccc(Cl)c2)C[C@@H]2C[C@@H](c3ccc4nonc4c3)N3CCC[C@@]123,"inconclusive [inhibitor, partial curve, poor fit]"
4,COc1ccc(CN(C)CC(=O)Nc2cc3oc4ccccc4c3cc2OC)c(OC)c1,"inconclusive [inhibitor, single point]"
5,Cc1ccc(-n2nc3c(=O)n(C(C)C(=O)NCCc4cccs4)nc(C)c3c2C)cc1 (stereo unspecified),"inconclusive [inhibitor, partial curve, poor fit]"
6,O=C(/C=C\c1ccc2c(c1)OCO2)NC1CC(=O)N(c2ccccc2)C1 (stereo unspecified),inactive
7,COc1ccc(Br)cc1[C@H]1[C@@H]2C=CCC[C@@]2(C)C(=O)N1Cc1ccccc1,active: 4.47 µM
8,COC(=O)c1cc2sccc2n1Cc1ccc(C)cc1,"inconclusive [inhibitor, single point]"
9,CC1Cc2cc(S(=O)(=O)CCC(=O)Nc3ccc(F)cc3)ccc2N1C(=O)C1CC1 (stereo unspecified),inactive
10,O=C(c1cccc(Br)c1)N1CCN(C(=O)c2cccc(Br)c2)CC1,"inconclusive [inhibitor, partial curve, poor fit]"
11,Cc1ccc(NC(=C(C#N)C#N)c2ccccc2)cc1,"inconclusive [inhibitor, single point]"
12,CCOc1ccc(-n2cc(-c3ccccc3)c3c(SC(C)C(=O)OC)ncnc32)cc1 (stereo unspecified),"inconclusive [inhibitor, partial curve]"
13,CCCCc1ccc(Nc2cc(C)nc(-n3nc(C)cc3C)n2)cc1,"inconclusive [inhibitor, partial curve, poor fit]"
14,COc1cc(OC)cc(C(=O)Nc2ccc3nc4c(c(Nc5ccc(OC)c(OC)c5)c3c2)CCCC4)c1,"inconclusive [inhibitor, single point]"
15,O=C(Cc1cccs1)NCCS(=O)(=O)N1CCN(c2cccc(Cl)c2)CC1,"inconclusive [inhibitor, partial curve, poor fit]"
16,CSc1ccccc1OCc1cc(C(=O)N2CCCC(C)C2)no1 (stereo unspecified),"inconclusive [inhibitor, partial curve, poor fit]"
17,O=C1N(c2ccccc2)C[C@@H]2C[C@@H](c3cccs3)N3CCC[C@@]123,"inconclusive [inhibitor, partial curve, poor fit]"
18,CCOC(=O)Nc1ccc(C(=O)/C=C/c2ccccc2)cc1,"inconclusive [inhibitor, single point]"
19,O=C(CCSCc1ccc(Cl)cc1)NCCc1ccccc1,"inconclusive [inhibitor, single point]"
20,O=C(NNc1ccc([N+](=O)[O-])cc1)c1ccco1,"inconclusive [inhibitor, full curve, poor fit]"
21,Cc1nn(-c2ccccc2)c2c1C1(C(=O)Nc3ccccc31)N1C(=N2)Sc2ccccc21 (stereo unspecified),"inconclusive [inhibitor, partial curve, poor fit]"
22,Cc1ccc(NC(=O)C2CCCN(c3ncnc4onc(C)c34)C2)c(Cl)c1 (stereo unspecified),inactive

row,SMILES,Potency
1,CN(C)S(=O)(=O)c1ccc(C(=O)NCCSc2c(-c3ccc(Br)cc3)[nH]c3ccccc23)cc1,inactive
2,OCC1OC(c2ccc(OCc3ccccc3)cc2OCc2ccccc2)C(O)C1O (stereo unspecified),"inconclusive [inhibitor, single point]"
3,O=C(/C=C/c1ccc(Cl)cc1)N(Cc1ccccc1)c1ccccn1,"inconclusive [inhibitor, partial curve, poor fit]"
4,COC(=O)c1ccc(OCC(=O)c2cccc(OC)c2)cc1,inactive
5,CN(C)CCCN(C(=O)c1ccc(C(=O)c2ccccc2)cc1)c1nc2cc3c(cc2s1)OCO3,"inconclusive [inhibitor, full curve, poor fit]"
6,Cc1c(Cl)cccc1N1CCn2c1nc1c2c(=O)n(CC(=O)O)c(=O)n1C,inactive
7,Cc1ccc(CSCCC(=O)N2CCN(c3ccc(F)cc3)CC2)cc1,"inconclusive [inhibitor, single point]"
8,O=C(Cn1nc(Cc2ccncc2)c2ccccc2c1=O)Nc1cccc(C(F)(F)F)c1,"inconclusive [inhibitor, partial curve]"
9,COc1ccc(N2CCN(C(=O)CN3CCSc4ccccc43)CC2)cc1,"inconclusive [inhibitor, partial curve]"
10,Cc1cc(C)n(-c2ccc(NC(=O)C3CCCCN3C(=O)c3sccc3C)cc2)n1 (stereo unspecified),"inconclusive [inhibitor, single point]"
11,COCCN(C(=S)Nc1cccc(C)c1)C(C)c1cccs1 (stereo unspecified),"inconclusive [inhibitor, single point]"
12,O=C(Cc1csc(NC(=O)Nc2cccc(Cl)c2)n1)NC1CCCC1,"inconclusive [inhibitor, partial curve, poor fit]"
13,O=C(C1=C[C@@H](c2csc3ccccc23)C[C@@H](OCCCCO)O1)N1CCN(Cc2ccc3c(c2)OCO3)CC1,"inconclusive [inhibitor, single point]"
14,Cc1cccc(NC(=O)c2nc[nH]c2C(=O)N[C@@H](CC(C)C)C(=O)OC(C)(C)C)c1,"inconclusive [inhibitor, partial curve, poor fit]"
15,CCOC(=O)C1(C(=O)OCC)C(C(=O)c2ccccc2)C1c1ccccc1 (stereo unspecified),"inconclusive [inhibitor, single point]"
16,Nc1nccc(-c2ccc(-n3cccc3)cc2)n1,inactive
17,COc1ccccc1Cn1c(=S)[nH]c2cc(C(=O)NCCN(C)C)ccc2c1=O,"inconclusive [inhibitor, single point]"
18,CCOc1ccc(CCNC(=O)C(CC(C)C)N2Cc3ccccc3C2=O)cc1OCC (stereo unspecified),"inconclusive [inhibitor, single point]"
19,C#Cc1cccc(NC(=O)c2ccc(Cl)cc2Cl)c1,"inconclusive [inhibitor, single point]"
20,CCc1nc2c(OCc3ccc(Cl)cc3)cccn2c1N(C)C(=O)c1ccccc1F,"inconclusive [inhibitor, single point]"
21,CCOc1ccccc1NC(=O)Nc1ccc2nc(N3CCN(C)CC3)cc(C)c2c1,"inconclusive [inhibitor, partial curve, poor fit]"
22,COCCNC(=O)C1CCCN(C(=O)Cc2cccc3ccccc23)CC1 (stereo unspecified),inactive
